Results: publication PMC12040169 (PLOS Biology, 2025)
Like-named read-outs stand apart in the source and are kept apart here. This is one part of the list.

System: T1, C. trachomatis L2/434/Bu expressing GFP (CTL2-GFP)
T1 construct: L2/434/Bu GFP intracellular growth in HeLa cells
Design: species or system HeLa; C. trachomatis total inclusion area by high-content imaging, normalised to DMSO
How it was run: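 High-content images of fixed, Hoechst-stained infected cultures supply inclusion area and count (growth) plus nuclei number (viability), complementing bulk GFP/resorufin fluorescence. MIC determination is unchanged from the primary assay.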

[1] = total inclusion area; 28.5 h, 10 µM; inhibitor

## CN1C(=O)c2ccccc2OCCCCC[C@H]2[C@@H]1CCCN2C(=O)CN1CCN(CCO)CC1 [CBK292144]
[1]
  % of control remaining: 117.056

## O=C(Nc1ccccc1[N+](=O)[O-])C1Cc2ccccc2CN1S(=O)(=O)c1ccc(F)cc1 (stereo not shown) [CBK266129]
[1]
  % of control remaining: 126.135

## CCOC(=O)c1ccc(N2C(=O)CC(N3CCCc4ccccc43)C2=O)cc1 (stereo not shown) [CBK268720]
[1]
  % of control remaining: 73.5054

## Cn1c(=O)n(C)c2cc(S(=O)(=O)NCCOc3ccc(C(=O)O)cc3)ccc21 [CBK299824]
[1]
  % of control remaining: 63.1598

## O=S(=O)(NCc1ccc(C(F)(F)F)cc1)c1cccs1 [CBK043744]
[1]
  % of control remaining: 89.8525

## CC(=O)N1CC[C@H]2NC(=O)CNC(=O)C3(CCCC[C@H]2C1)CCN(C(=O)/C=C/c1ccccc1)CC3 [CBK292092]
[1]
  % of control remaining: 89.3691

## COc1ccc(Nc2cc(-c3ccco3)ncn2)c(OC)c1 [CBK090761]
[1]
  % of control remaining: 62.5327

## CCCCN(/C=N/S(=O)(=O)c1ccccc1)CCCC [CBK026576]
[1]
  % of control remaining: 122.952

## COc1cc2cc(CN(Cc3cccnc3)C(=O)Nc3ccc(F)cc3)c(=O)[nH]c2cc1OC [CBK108193]
[1]
  % of control remaining: 107.925

## CC(C)N(CCOc1nccnc1/C=C/c1ccccc1)C(C)C [CBK106889]
[1]
  % of control remaining: 104.988

## O=C(c1ccno1)N1CCc2ccccc21 [CBK200409]
[1]
  % of control remaining: 104.64

## Nc1ncc(-c2ccoc2)nc1-c1ccc(C(=O)N2CCOCC2)cc1 [CBK064076]
[1]
  % of control remaining: 102.871

## CC(C)C(NS(=O)(=O)c1ccc(I)cc1)C(=O)O (stereo not shown) [CBK268703]
[1]
  % of control remaining: 100.55

## COc1ccc2[nH]c3c(c2c1)CCN(C(C)=O)C31CCNCC1 [CBK284429]
[1]
  % of control remaining: 59.9502

## O=C(O)c1ccc2c(c1)C(=O)N(c1ccc3c(c1)Cc1cc(N4C(=O)c5ccc(C(=O)O)cc5C4=O)ccc1-3)C2=O [CBK261333]
[1]
  % of control remaining: 100.301

## COc1ccc([C@@]23CC[C@@H](NC(=O)Nc4cccc(-c5cnco5)c4)C[C@@H]2N(C)CC3)cc1OC [CBK059338T]
[1]
  % of control remaining: 82.3003

## N#C/C(=C\c1cn(CCC(N)=O)c2ccccc12)c1nc2ccccc2[nH]1 [CBK267966]
[1]
  % of control remaining: 40.4537

## CS(=O)(=O)N1CC2(CCN(Cc3cc(=O)[nH]c(=O)[nH]3)CC2)c2ccccc21 [CBK126679]
[1]
  % of control remaining: 110.156

## O=C(NC1CCCC1)c1cccnc1 [CBK200236]
[1]
  % of control remaining: 99.0694

## CC(C)(C)c1ccc(C(=O)N2CC[C@H]3NC(=O)N(Cc4ccccc4)C(=O)[C@H]32)cc1 [CBK289294]
[1]
  % of control remaining: 119.523

## CC(C)OC(=O)Cc1nc(CN2CCc3sccc3C2C)cs1 (stereo not shown) [CBK305284]
[1]
  % of control remaining: 40.5262

## OCCN1CCN(C(=S)NC2CCCC2)CC1 [CBK265886]
[1]
  % of control remaining: 100.098

## COc1ccc(CN2CCN(c3ccccn3)CC2)cc1O [CBK261570]
[1]
  % of control remaining: 94.2103

## CC(C)n1cnnc1CN(C)C(=O)CCc1nc2ccccc2s1 [CBK304638]
[1]
  % of control remaining: 51.4185

## NC(=O)c1cccc(-c2cnc(N)c(NCc3ccco3)n2)c1 [CBK063660]
[1]
  % of control remaining: 95.8735

## N#C/C(=C\Nc1ccc(S(N)(=O)=O)cc1)c1nc(-c2cc3c(ccc4ccccc43)oc2=O)cs1 [CBK262376]
[1]
  % of control remaining: 94.8591

## COc1cc(CNC(=O)c2ccc3[nH]ccc3c2)cc(OC)c1OC [CBK149073]
[1]
  % of control remaining: 82.5812

## CC(Oc1ccc(F)cc1)C(=O)N1CCCc2c(cnn2C)C1 (stereo not shown) [CBK285230]
[1]
  % of control remaining: 91.3887

## COC(=O)Cn1nnc(-c2ccc(C)cc2)n1 [CBK068195]
Total inclusion area, 28.5 h, 10 µM, inhibitor
  % of control remaining: 93.3691

## CC1CCN(S(=O)(=O)c2cccs2)CC1 [CBK102093]
[1]
  % of control remaining: 113.667

## COc1cccc(C(=O)Nc2nc3ccc(F)cc3s2)c1 [CBK287342]
[1]
  % of control remaining: 95.7793

## COc1ccc(CN2CCCN(c3ccnc(OCCN4CCOCC4)n3)CC2)cc1 [CBK083800]
[1]
  % of control remaining: 56.6146

## COc1ccc([C@@]23CCC(NC(=O)Nc4cc(C(F)(F)F)ccc4F)C[C@@H]2N(C)CC3)cc1OC (stereo partly shown) [CBK047552T]
[1]
  % of control remaining: 90.7954

## COc1ccc(OCC(=O)Nc2ccc(C(=O)O)c(Cl)c2)cc1 [CBK287108]
[1]
  % of control remaining: 93.4759

## CC(CNS(=O)(=O)c1cc(Cl)ccc1Cl)CN(C)C (stereo not shown) [CBK266808]
[1]
  % of control remaining: 87.535

## CC(C)n1c(SCC(=O)Nc2nc(C(C)(C)C)cs2)nc2c1c(=O)n(C)c(=O)n2C [CBK127417]
[1]
  % of control remaining: 79.5235

## COc1ccc(-c2cc(C(F)(F)F)nc(S(=O)(=O)CCC(=O)Nc3ccc(C)cc3)n2)cc1 [CBK266235]
[1]
  % of control remaining: 123.773

## CCN(CC)S(=O)(=O)c1ccc(OC)c(NC(=O)C2c3ccccc3Oc3ccccc32)c1 [CBK264774]
[1]
  % of control remaining: 114.261

## CSCCOc1cc(N2CCCC2)ncn1 [CBK115900]
[1]
  % of control remaining: 93.3134

## O=C(CSc1ncnc2c1oc1ccccc12)Nc1ccccc1 [CBK057994]
[1]
  % of control remaining: 106.575

## CSc1nc(NC(=O)c2ccccc2)cc(N2CCNCC2)n1 [CBK050266T]
[1]
  % of control remaining: 94.8862

## CCC1(CC)OC(NC(C)c2ccccc2F)=NC1=O (stereo not shown) [CBK132018]
[1]
  % of control remaining: 56.981

## Cn1nc(-c2ccc(S(=O)(=O)Nc3nnn[nH]3)s2)cc1C(F)(F)F [CBK062390]
[1]
  % of control remaining: 114.465

## COc1ccc2c(CC(=O)Nc3sccc3C(N)=O)coc2c1 [CBK295137]
[1]
  % of control remaining: 113.002

## CCOC(=O)Cc1nnc(-c2cccc(C(F)(F)F)c2)[nH]1 [CBK304385]
[1]
  % of control remaining: 56.8192

## CCCn1nc(C)c(-c2cncn2CC(C)n2nc(C)cc2C)c1C (stereo not shown) [CBK281793]
[1]
  % of control remaining: 100.444

## Cc1n[nH]c(C)c1CCC(=O)N/N=C/c1ccc(Cl)cc1Cl [CBK262901]
[1]
  % of control remaining: 102.712

## COc1cccc(NC(=O)C2C(C(=O)O)C3C=CC2C32CC2)c1 (stereo not shown) [CBK287106]
[1]
  % of control remaining: 107.017

## COc1ccc(NS(=O)(=O)c2c(Cl)cccc2Cl)c(C(=O)NCc2ccccc2)c1 [CBK113952]
[1]
  % of control remaining: 88.1172

## COCCNC(=O)c1cc(-c2ccccc2C)nc2c1cnn2C(C)C [CBK305392]
[1]
  % of control remaining: 30.7352

## Cc1ccc(CN(Cc2ccco2)CC(O)COCc2ccco2)s1 (stereo not shown) [CBK304610]
[1]
  % of control remaining: 53.8074

## CN(Cc1cccc(C(F)(F)F)c1)C(=O)c1cn(CC2CCCO2)nn1 (stereo not shown) [CBK304360]
[1]
  % of control remaining: 41.8497

## Cc1cc(OC(C)C(=O)Nc2ccc(S(=O)(=O)Nc3onc(C)c3C)cc2)cc(C)c1Cl (stereo not shown) [CBK267887]
[1]
  % of control remaining: 98.2073

## Cc1noc(C)c1S(N)(=O)=O [CBK022939]
[1]
  % of control remaining: 47.5137

## CN(C)Cc1c(O)ccc2occ(C(=O)c3ccccc3)c12 [CBK261965]
[1]
  % of control remaining: 101.635

## O=c1[nH]c(=O)c2cc(S(=O)(=O)N3CCC(c4ccccc4)C3)ccc2[nH]1 (stereo not shown) [CBK286382]
[1]
  % of control remaining: 80.8195

## CCOc1ccccc1-c1noc(CSc2nnc(-c3ccncc3)n2-c2cccc(C)c2)n1 [CBK269076]
[1]
  % of control remaining: 86.2312

## COc1ccccc1C(=O)Nc1ccc2nc(SCC(=O)NC3CC3)sc2c1 [CBK070791]
[1]
  % of control remaining: 98.9411

## CCc1ccc2c(c1)C(CCNC(=O)c1ncccc1F)C(=O)N2 (stereo not shown) [CBK304727]
[1]
  % of control remaining: 71.2074

## CC(=O)Nc1ccc(-c2cncc(NCCCO)n2)cc1 [CBK065598]
[1]
  % of control remaining: 84.7549

## COc1cc(C(=O)N2CCC3(CC2)CC(=O)c2cc(C)ccc2O3)cc(-c2ccc(OC)c(OC)c2)c1 [CBK168271]
[1]
  % of control remaining: 126.491

## Cc1nc(=O)c(-c2ccccc2)c(C)n1-c1ccc(OCC(=O)O)cc1 [CBK286615]
[1]
  % of control remaining: 104.889

## Cn1c(=O)c2c(ncn2CC(=O)Nc2ccc(Cl)cc2Cl)n(C)c1=O [CBK133227]
[1]
  % of control remaining: 95.1508

## Cc1nc(-c2ccco2)nc2sc(C(=O)NCc3nnc4ccccn34)c(C)c12 [CBK297773]
[1]
  % of control remaining: 110.966

## CCOC(=O)C(C)N1C(=O)S/C(=C/c2ccc(Oc3ccc([N+](=O)[O-])cn3)cc2)C1=O (stereo not shown) [CBK265114]
[1]
  % of control remaining: 133.808

## CCN1CCN(C(=O)CCNC(=O)c2cccc(OC)c2)CC1 [CBK307580]
[1]
  % of control remaining: 93.3922

## Cc1ccc(COCSc2nc3ccccc3n2CC(O)CO)cc1C (stereo not shown) [CBK021195]
[1]
  % of control remaining: 74.7647

## CC(=O)OC(C(=O)N1CCCCCC1)c1ccc(Br)cc1 (stereo not shown) [CBK007027]
[1]
  % of control remaining: 76.8086

## CC(C)NC(=O)Cn1nc(-c2cc3c(s2)CCC3)oc1=O [CBK283801]
[1]
  % of control remaining: 104.353

## Cc1cc(OC(C)C(=O)N(Cc2cccs2)C2CCS(=O)(=O)C2)cc(C)c1Cl (stereo not shown) [CBK293962]
[1]
  % of control remaining: 105.998

## COc1nc(-c2ccc(N(C)C)nc2)nn1C [CBK307317]
[1]
  % of control remaining: 44.6521

## Cc1nc(SCc2cccc(C(=O)O)c2)nc2c1CCCC2 [CBK266997]
[1]
  % of control remaining: 95.3959

## O=C(Nc1ccccc1-c1nc2ccccc2s1)c1cc(Br)ccc1Cl [CBK266280]
[1]
  % of control remaining: 148.685

## O=C(Cn1cnc2ccc([N+](=O)[O-])cc2c1=O)Nc1ccc(C(=O)O)cc1 [CBK297542]
[1]
  % of control remaining: 112.715

## CCN(Cc1ccncc1)C(=O)Nc1ccc(N(CC)CC)cc1 [CBK155141]
[1]
  % of control remaining: 92.4703

## O=c1c(N2CCNCC2)nccn1CCc1cccs1 [CBK050382T]
[1]
  % of control remaining: 71.3946

## Oc1ccc(CCNc2ncnc3[nH]cnc23)cc1 [CBK017724C]
[1]
  % of control remaining: 86.4963

## CCOC(=O)Cn1c(CCC(=O)O)ccc1-c1ccc(F)cc1 [CBK265916]
[1]
  % of control remaining: 118.115

## COc1ccccc1N1CCN(C[C@H]2C[N@@]3CC[C@H]2C[C@@H]3CNS(C)(=O)=O)CC1 [CBK288770]
[1]
  % of control remaining: 109.568
